These results are taken from PubChem BioAssay AID1508642 (National Center for Advancing Translational Sciences (NCATS), 2021).

Out of some 43,000 compounds screened, about 200 (0.47%) were called active. Roughly 12% stayed inconclusive and do not appear here. Calls come from the whole dose curve; as a rule, active = well fitted cell-killing curve with a large enough effect; inconclusive = small, poorly fitted or top-dose-only effect, or effect the other way; inactive = flat fitted curve, though single readings scatter. This is one part of the list.
% is set by controls: 0 for no effect and ±100 for the full control effect.

The experiment can be described thus: Cell viability qHTS assay in S16 Pmp22-F2sN cells. Note: nearly all actives have a fitted effect of over 65% in size. The following applies: S16 Pmp22-F2sN Schwann cells (luciferase reporters placed in the Pmp22 gene) viability, CellTiter-Glo, 24 h; series mostly up to 57.5 µM; activity change, negative = cytotoxicity: at the top concentration. The essentials:
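CellTiter-Glo counter-screen, qHTS, 1536-well. Cells: S16(c9) Pmp22-F2sN, 500-1,000/well in DMEM + 10% FBS. Cpd 23 nL pin transfer, 24 h, 37C/5% CO2. Read: luminescence, CCD imager.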
For the compound `COc1ccc(N(CC(=O)NCc2ccc(F)cc2)S(=O)(=O)c2c(C)noc2C)cc1`, the “activity change, negative = cytotoxicity” value is inactive: 2.91%. As to `N#Cc1ccc(-c2cccs2)nc1SCc1c(F)cccc1Cl`, the “activity change, negative = cytotoxicity” value was inactive: -9%. As to `CCCN(c1ccc(C(C)C)cc1)S(=O)(=O)c1ccc2c(c1)CCN2C(=O)CC`, the “activity change, negative = cytotoxicity” value is inactive: 0.923%. For the compound `O=C(NC1CCCC1)c1ccc2c(c1)N(Cc1ccc(C(F)(F)F)cc1)C(=O)c1ccccc1S2`, the “activity change, negative = cytotoxicity” value is inactive: 13.8%. Take `Cc1ccccc1Cn1c(=O)n(Cc2ccc3c(c2)OCO3)c(=O)c2oc3ccccc3c21`: the “activity change, negative = cytotoxicity” value is inactive: 10.1%. Take `O=C(CCc1nc2cccnc2n1Cc1cccs1)Nc1cccc(C(F)(F)F)c1`: the “activity change, negative = cytotoxicity” value is inactive: -15.2%. Take `O=C(c1ccc(C(F)(F)F)cc1)N1CCC(c2noc(-c3ccc(S(=O)(=O)N4CCCC4)cc3)n2)CC1`: the “activity change, negative = cytotoxicity” value is inactive: -23.5%.

Take `NC(=O)c1ccccc1NC(=O)C1CCCN(c2ncnc3onc(-c4ccc(F)cc4)c23)C1` (centres undefined): the “activity change, negative = cytotoxicity” value is inactive: -20.4%. Take `O=C(c1cccs1)N(Cc1cccnc1)c1nc2c(Cl)cccc2s1`: the “activity change, negative = cytotoxicity” value was inactive: -22.2%. Consider `COCCCNS(=O)(=O)c1cc(-c2onc(C)c2C)ccc1OC`, for which the “activity change, negative = cytotoxicity” value is inactive: -23.1%.

As to `COc1ccc(N2CCN(C(=O)CSc3n[nH]c(-c4ccccc4)n3)CC2)cc1`, the “activity change, negative = cytotoxicity” value is inactive: 7.15%. With `COc1ccc(-c2noc(CCC(=O)N(C)c3ccccc3C)n2)cc1`, the “activity change, negative = cytotoxicity” value was inactive: -3.82%. In the case of `CN(C)C(=O)c1ccc(NC(=O)Cn2nnnc2-c2ccccc2F)cc1`, the “activity change, negative = cytotoxicity” value is inactive: 1.03%.

With `Cc1ccccc1NC(=O)CSc1c(C(C)C)cnc2c1c(=O)n(C)c(=O)n2C`, the “activity change, negative = cytotoxicity” value is inactive: -15.5%. To `Cc1cc(C)cc(OCC(=O)Nc2nc(-c3ccc(F)cc3)ns2)c1` belongs inactive: 3.75%; to `CCOc1ccccc1NC(=O)CSc1nc2ccccc2nc1N1CCOCC1`, inactive: 4.66%; to `COC(=O)c1cc(NS(=O)(=O)c2ccc3c(c2)OCCO3)ccc1Cl`, inactive: 0.432%. Take `COc1ccc(NC(=O)c2oc3ccc(S(=O)(=O)N4CCOCC4)cc3c2C)c(OC)c1`: the “activity change, negative = cytotoxicity” value is inactive: 29.2%. To `COc1ccc(N2CCN(C(=O)c3cc4c(=O)n(Cc5cccnc5)ccc4nc3C)CC2)cc1` belongs inactive: 1.45%; to `COc1ccc(CCNC(=O)c2cnn(-c3ccc(F)cc3)c2C2CCN(C(=O)OC(C)(C)C)CC2)cc1OC`, inactive: 4.97%. `O=C(CN1C(=O)C2(SCC(=O)N2c2ccc(F)c(F)c2)c2ccccc21)NCCc1ccccc1` (centres undefined): the “activity change, negative = cytotoxicity” value is inactive: -4.12%. As for `CCOc1cc(C(c2c(C)[nH]n(-c3ccccc3)c2=O)c2c(C)[nH]n(-c3ccccc3)c2=O)ccc1O`, the “activity change, negative = cytotoxicity” value is inactive: -3.28%.

Regarding `COc1ccc(-c2noc(N3CCC(C(=O)Nc4cccc(C)c4C)CC3)n2)cc1`, the “activity change, negative = cytotoxicity” value was inactive: -3.61%. In the case of `CCOc1cc(CNC(=O)c2cc(-c3ccccc3)n[nH]2)cc(OCC)c1OCC`, the “activity change, negative = cytotoxicity” value was inactive: -14%. `O=C(NCCc1ccc(F)cc1)C(=O)NCC(c1ccco1)S(=O)(=O)c1ccccc1` (centres undefined): the “activity change, negative = cytotoxicity” value is inactive: 8.42%. To `CCOc1ccc(/C=C/c2nc(C#N)c(N3CCN(CC)CC3)o2)cc1` belongs inactive: -2.74%.

For `Cc1[nH]c2ccc(C(=O)N3CCN(c4ccccc4F)CC3)cc2c1C`, the “activity change, negative = cytotoxicity” value is inactive: -9.93%. With `CCN(CC)S(=O)(=O)c1ccc(NC(=O)Cn2ncc3c([nH]c4ccccc43)c2=O)cc1`, the “activity change, negative = cytotoxicity” value was inactive: -9.96%. To `CC(Oc1ccccc1)C(=O)Nc1ccc(C(=O)OCc2cc(=O)n3nc(C(C)C)sc3n2)cc1` (centres undefined) belongs inactive: -0.128%; to `Cc1nc(SCC(=O)N2CCN(c3ccccc3)CC2)[nH]c(=O)c1C`, inactive: -1.57%; to `Fc1ccccc1Nc1c2c(nc3ccccc13)CCC2`, inactive: -4.03%. As to `COc1cccc2cc(C(=O)N3CCN(c4cc(C)ccc4C)CC3)c(=O)oc12`, the “activity change, negative = cytotoxicity” value is inactive: -0.544%. In the case of `CCc1ccccc1NC(=O)CN(C)S(=O)(=O)c1cccc2nsnc12`, the “activity change, negative = cytotoxicity” value was inactive: -5.26%. Take `COc1ccc(OC)c(NC(=O)c2c(NCc3cccs3)sc3c2CCCCC3)c1`: the “activity change, negative = cytotoxicity” value is inactive: -8.89%. In the case of `CCN(CC)c1ccc(NC(=O)c2c(C)nn(-c3ccc(F)cc3)c2-n2cccc2)c(C)c1`, the “activity change, negative = cytotoxicity” value was inactive: -0.318%. For the compound `COc1ccc(-c2ccc(NS(=O)(=O)c3ccc(NC(C)=O)cc3)cc2)nn1`, the “activity change, negative = cytotoxicity” value was inactive: -0.32%. `Cc1ccc(CNC(=O)CCS(=O)(=O)c2cc3c4c(c2)CCN4C(=O)CC3)cc1`: the “activity change, negative = cytotoxicity” value was inactive: 24%. Turning to `CCc1ccc(NC(=O)CSc2nc3c([nH]c4ccccc43)c(=O)n2-c2ccc(C)cc2)cc1`, the “activity change, negative = cytotoxicity” value is inactive: 3.55%. Next, `COc1cccc(CN(C(=O)COc2ccc(Cl)c(C)c2)C2CCS(=O)(=O)C2)c1` (centres undefined): inactive: 0.698%.

For `Cc1ccc(C2CC(=O)n3nc(-c4ccc(Cl)cc4)nc3S2)cc1` (centres undefined), the “activity change, negative = cytotoxicity” value was inactive: 2.4%. To `Cc1ccc(Sc2ccc(N3CCC(C(=O)Nc4cc(C)cc(C)c4)CC3)nn2)cc1` belongs inactive: 1.75%; to `Cc1c(Cl)cccc1-n1ncc(C(=O)NCCN2CCN(C)CC2)c1C1CCN(C(=O)OC(C)(C)C)CC1`, inactive: 4.76%. Take `O=C(Cn1c(=O)n(-c2ccccc2)c(=O)c2c3c(sc21)CCC3)c1ccc(F)cc1`: the “activity change, negative = cytotoxicity” value was inactive: 10.6%. In the case of `O=C(NCc1ccccc1)c1ccc2c(c1)N(Cc1ccccc1F)C(=O)c1ccccc1S2=O` (centres undefined), the “activity change, negative = cytotoxicity” value is inactive: -21.3%. Turning to `COc1cccc(CN2C(=O)c3ccccc3Sc3ccc(C(=O)NCc4ccccc4)cc32)c1`, the “activity change, negative = cytotoxicity” value is inactive: 18.4%. `COc1ccccc1C(=O)Nc1c(C(=O)Nc2cc(Cl)ccc2C)sc2nc(C)cc(C)c12`: the “activity change, negative = cytotoxicity” value was inactive: -1.43%. To `COc1cccc(N2CCN(C(=O)c3cnc4c(-c5ccccc5)c(C)nn4c3C)CC2)c1` belongs inactive: -2.34%; to `Cc1ccccc1NC(=O)NCCc1c[nH]c2ccccc12`, inactive: 3.25%. For `O=C(Nc1ccccc1)c1cnc(N2CCCCC2)c2ccccc12`, the “activity change, negative = cytotoxicity” value was inactive: -3.08%.

Regarding `CCOC(=O)c1scc(-c2ccccc2)c1S(=O)(=O)N1CCN(c2ccc(Cl)cc2)CC1`, the “activity change, negative = cytotoxicity” value is inactive: 20.5%. With `Cc1ccc(NC(=O)c2ccc(NC(=O)N3CCSc4ncccc43)cc2)c(Cl)c1`, the “activity change, negative = cytotoxicity” value was inactive: 12.2%.

For the compound `COc1cccc(C(=O)N(Cc2cccc(F)c2)C2CCS(=O)(=O)C2)c1` (centres undefined), the “activity change, negative = cytotoxicity” value is inactive: 4.27%. For the compound `Cc1ccc2c(c1)N(CC(=O)Nc1ccccc1C(F)(F)F)C(=O)c1cccnc1O2`, the “activity change, negative = cytotoxicity” value is inactive: -3.12%. `COc1ccc(Cn2ccnc2SCC(=O)Nc2ccc3c(c2)OCCO3)cc1`: the “activity change, negative = cytotoxicity” value is inactive: 3.96%.

For the compound `CCOC(=O)c1c(NC(C)=O)c2c3c(sc2n1Cc1c(C)cc(C)cc1C)CCCC3`, the “activity change, negative = cytotoxicity” value was inactive: -23.8%.

Turning to `CCOc1ccc(N(CC(=O)NCc2ccc(OC)cc2)S(=O)(=O)c2c(C)[nH]c(=O)[nH]c2=O)cc1`, the “activity change, negative = cytotoxicity” value was inactive: 12.5%. Next, `CCOC(=O)c1cc2c(=O)n3ccccc3nc2n(Cc2ccco2)c1=NC(=O)c1ccc(C(C)(C)C)cc1`: inactive: -17.6%.

Take `COc1cccc(OC)c1C(=O)Nc1ccc(-c2nc3ncccc3o2)cc1`: the “activity change, negative = cytotoxicity” value was inactive: -2.33%. On to `Cc1c(Cl)cccc1NC(=O)c1oc2ccc(S(=O)(=O)N3CCCCCC3)cc2c1C`, for which the “activity change, negative = cytotoxicity” value was inactive: 4.18%.
